The text below walks through data of US6153604A, “Therapeutic substituted guanidines” (Cambridge NeuroScience, Inc., priority 1995, dated 2000).

The Ki is the equilibrium dissociation constant of an inhibitor or competing ligand from its target.

Each structure is given as a SMILES string. Counter-ions that a name gives are not always drawn.

The assay has as its target PCP receptor. As to the kind of experiment: PCP receptor radioligand binding assay ([3H]MK-801, rat brain membranes). The settings on record: read-out: [3H-MK801] Ki (head printed "Kj"); derived from the IC50 values as described by Cheng et al.
With `CSc1cccc(N(C)C(=N)Nc2cc(Cl)ccc2Cl)c1` [Compd. No. 62 (Table I), N-(3-Methylthiophenyl)-N-methyl-N'-(2,5-dichlorophenyl)guanidine hydrochloride], the Ki is 45.6 nM.

Turning to `CSc1cccc(N(C)C(=N)Nc2cc(SC)ccc2Br)c1` [Compd. No. 63 (Table I), N-(3-Methylthiophenyl)-N-methyl-N'-(2-bromo-5-methylthiophenyl)guanidine], the Ki is 1.65 nM.

`CSc1cccc(N(C)C(=N)Nc2cc(Br)ccc2Br)c1` [Compd. No. 65 (Table I), N-(3-Methylthiophenyl)-N-methyl-N'-(2,5-dibromophenyl)guanidine hydrochloride]: the Ki turned out to be 4.13 nM.

On to `CSc1ccc(Cl)c(NC(=N)N(C)c2cccc(C(F)(F)F)c2)c1` [Compd. No. 66 (Table I), N-(3-Trifluoromethylphenyl)-N-methyl-N'-(2-chloro-5-methylthiophenyl)guanidine hydrochloride], for which the Ki turned out to be 6.92 nM.

For `CCc1ccc(Cl)c(NC(=N)N(C)c2cccc(C(F)(F)F)c2)c1` [Compd. No. 67 (Table I), N-(3-Trifluoromethylphenyl)-N-methyl-N'-(2-chloro-5-ethylphenyl)guanidine hydrochloride], the Ki came to 59.2 nM.

Take `CSc1ccc(Br)c(NC(=N)N(C)c2cccc(C(F)(F)F)c2)c1` [Compd. No. 69 (Table I), N-(3-Trifluoromethylphenyl)-N-methyl-N'-(2-bromo-5-methylthiophenyl)guanidine hydrochloride]: the Ki amounted to 4.27 nM.

For the molecule `CCc1ccc(Br)c(NC(=N)N(C)c2cccc(C(F)(F)F)c2)c1` [Compd. No. 70 (Table I), N-(3-Trifluoromethylphenyl)-N-methyl-N'-(2-bromo-5-ethylphenyl)guanidine hydrochloride], the Ki stood at 15.7 nM.

Regarding `CN(C(=N)Nc1cc(Br)ccc1Br)c1cccc(C(F)(F)F)c1` [Compd. No. 71 (Table I), N-(3-Trifluoromethylphenyl)-N-methyl-N'-(2,5-dibromophenyl)guanidine hydrochloride], the Ki was found to be 26.1 nM.

On to `CSc1ccc(Cl)c(NC(=N)N(C)c2cccc(Br)c2)c1` [Compd. No. 72 (Table I), N-(3-Bromophenyl)-N-methyl-N'-(2-chloro-5-methylthiophenyl)guanidine hydrochloride], for which the inhibitory constant (Ki) was determined as 3.58 nM.

As to `CCc1cccc(NC(=N)Nc2cc(C(F)(F)F)ccc2F)c1` [Compound 5], the Ki turned out to be 76 nM.

Regarding `CCc1ccc(Br)c(NC(=N)N(C)c2cccc(OC(F)(F)F)c2)c1` [Compound 74], the Ki was determined as 12.3 nM.

Take `CN(C(=N)Nc1cc(Br)ccc1Br)c1cccc(S(C)(=O)=O)c1` [Compound 75]: the Ki worked out at 408 nM.

Take `CN(C(=N)Nc1cc(Br)ccc1Br)c1cccc([S+](C)[O-])c1` (stereo not shown) [Compound 76]: the Ki was found to be 248 nM.

Turning to `CSc1ccc(Cl)c(NC(=N)N(C)c2cccc(I)c2)c1` [Compound 77], the Ki was 1.62 nM.

Regarding `CCc1ccc(Cl)c(NC(=N)Nc2cccc(I)c2)c1` [Compound 78], the Ki stood at 10.5 nM.

`CSc1ccc(Cl)c(NC(=N)N(C)c2cccc3cccnc23)c1` [Compound 79]: the Ki is 17 nM.
